According to PubChem BioAssay AID588795 (National Center for Advancing Translational Sciences (NCATS), 2011):
Hit rate of the full screen: of about 390,000 compounds, about 1,400 (0.36%) were called active. The shares of active, inactive and inconclusive entries below differ from those in the screen. The call rests on the fitted dose curve; in most records, active means well fitted inhibition curve with a large enough effect; inconclusive means small, poorly fitted or top-dose-only effect; inactive means no such curve, though single readings can be large or run the other way. Potencies beside an inconclusive call are fits to weak or partial responses and may not hold up.

What follows are compounds tested against Flap endonuclease 1 (Homo sapiens) (UniProt P39748) (assay: qHTS Assay for the Inhibitors of Human Flap endonuclease 1 (FEN1).). Conditions: Recombinant FEN1 flap cleavage, fluorescence, 15 min; series mostly up to 114 µM; activity change, negative = inhibition: at the top concentration.
Method in brief: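 Concentration–response screening of FEN1 (10 nM): 15 min compound preincubation at room temperature, reaction started with 50 nM substrate and read at 0 and 15 min. Corrected, normalized data were fitted by a four-parameter Hill equation.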
Further: nearly all actives have a fitted effect of over 65% in size.
On the % scale 0 is the no-effect control and ±100 the full control effect; potency means the concentration at half of the fitted maximal effect; tags describe the fitted curve by direction and shape.

Sequence of UniProt P39748 (P39748 whole entry, looked up): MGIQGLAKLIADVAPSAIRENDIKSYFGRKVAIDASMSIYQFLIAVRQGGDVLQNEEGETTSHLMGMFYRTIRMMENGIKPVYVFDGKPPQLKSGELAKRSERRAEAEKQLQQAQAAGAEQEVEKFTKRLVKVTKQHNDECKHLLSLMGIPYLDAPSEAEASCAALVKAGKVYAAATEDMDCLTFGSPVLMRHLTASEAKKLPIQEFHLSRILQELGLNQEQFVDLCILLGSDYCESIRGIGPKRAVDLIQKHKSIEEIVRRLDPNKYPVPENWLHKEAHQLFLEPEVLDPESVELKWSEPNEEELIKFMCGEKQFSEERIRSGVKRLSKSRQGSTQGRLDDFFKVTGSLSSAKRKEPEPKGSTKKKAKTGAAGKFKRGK

| SMILES | Potency | activity change, negative = inhibition |
| --- | --- | --- |
| Brc1cccc[n+]1CCCCCC[n+]1ccccc1Br | active: 79.4 µM |  |
| CC1=NN(C(=O)c2ccncc2)C(=O)C1N=Nc1ccc2ccccc2c1 (centres undefined) | inconclusive: 89.1 µM [inhibitor, single point] |  |
| CN(C)CCCn1c(=S)[nH]c2sc3c(c2c1=O)CCCC3 |  | inactive: -1.45% |
| COc1ccc(-c2oc3ccccc3c(=O)c2OCC(=O)O)cc1 |  | inactive: 0.314% |
| O=C(O)c1c2c(nc3ccc(F)cc13)CCC2 |  | inactive: -17.4% |
| Cc1nc2ccccc2c(-c2ccccc2)c1C(=O)c1ccccc1 | inconclusive: 89.1 µM [inhibitor, partial curve, poor fit] |  |
| Cc1ccccc1NC(=O)CN1C(=O)N/C(=C\c2ccccc2OCc2ccc(C(=O)O)cc2)C1=O | inconclusive: 89.1 µM [inhibitor, partial curve, poor fit] |  |
| COc1ccc(-n2c(O)c(/C=N/NS(=O)(=O)c3cc(C)ccc3C)c3ccccc3c2=O)cc1OC | inconclusive: 35.5 µM [inhibitor, full curve] |  |
| Cc1cc(C(=O)NNC(=O)/C=C/c2ccco2)c(C)o1 | inconclusive: 89.1 µM [inhibitor, partial curve] |  |
| Cn1cccc1C(=O)NC(=O)CSc1cccc[n+]1[O-] | inconclusive: 89.1 µM [inhibitor, partial curve, poor fit] |  |
| CCCCCCCc1nc2nc(C)c(Br)c(=O)n2[nH]1 | inconclusive: 89.1 µM [inhibitor, single point] |  |
| NC(=S)NN=C1c2ccccc2-c2ccccc21 | inconclusive: 28.2 µM [inhibitor, full curve] |  |
| O=C(O)c1ccc(Nc2nc3ccccc3nc2NS(=O)(=O)c2cccs2)cc1 | inconclusive: 89.1 µM [inhibitor, single point] |  |
| Cc1ccc2cc3c(N)c(C(=O)Nc4c(C)[nH]c(=O)[nH]c4=O)sc3nc2c1 | inconclusive: 50.1 µM [inhibitor, partial curve] |  |
| CCOC(=O)c1sc(Nc2nc3ccc(OC)cc3s2)cc1C | inconclusive: 44.7 µM [inhibitor, partial curve, poor fit] |  |
| O=c1[nH]c(/C=C\c2cccc(Cl)c2)nc(O)c1[N+](=O)[O-] |  | inactive: 2.67% |
| CN(C)[C@@H]1C(=O)C(C(N)=O)=C(O)[C@@]2(O)C(=O)C3=C(O)c4c(O)ccc(Cl)c4[C@@H](O)[C@H]3C[C@@H]12 | inconclusive: 29.9 µM [inhibitor, partial curve] |  |
| Cc1ccc(C(=O)CC2(O)C(=O)Nc3ccccc32)s1 (centres undefined) |  | inactive: -3.06% |
| COc1ccc(CCNC(=O)c2cccc(S(=O)(=O)N3CCCCCC3)c2)cc1 | inconclusive: 70.8 µM [inhibitor, partial curve, poor fit] |  |
